# Publication PMC4336329 (PLoS ONE, 2015)
# Screen size: about 310,000 compounds; about 2,200 (0.71%) showed an effect of 50% or more. Effects have a minus sign here. The list shows a part of the results.
# Biological target: human ether-à-go-go-related gene (hERG) potassium channel (human, UniProt Q12809)
# Test: primary screen, population patch clamp on CHO cells stably expressing hERG
# human ether-à-go-go-related gene (hERG) potassium channel, sequence (Q12809 whole entry, looked up): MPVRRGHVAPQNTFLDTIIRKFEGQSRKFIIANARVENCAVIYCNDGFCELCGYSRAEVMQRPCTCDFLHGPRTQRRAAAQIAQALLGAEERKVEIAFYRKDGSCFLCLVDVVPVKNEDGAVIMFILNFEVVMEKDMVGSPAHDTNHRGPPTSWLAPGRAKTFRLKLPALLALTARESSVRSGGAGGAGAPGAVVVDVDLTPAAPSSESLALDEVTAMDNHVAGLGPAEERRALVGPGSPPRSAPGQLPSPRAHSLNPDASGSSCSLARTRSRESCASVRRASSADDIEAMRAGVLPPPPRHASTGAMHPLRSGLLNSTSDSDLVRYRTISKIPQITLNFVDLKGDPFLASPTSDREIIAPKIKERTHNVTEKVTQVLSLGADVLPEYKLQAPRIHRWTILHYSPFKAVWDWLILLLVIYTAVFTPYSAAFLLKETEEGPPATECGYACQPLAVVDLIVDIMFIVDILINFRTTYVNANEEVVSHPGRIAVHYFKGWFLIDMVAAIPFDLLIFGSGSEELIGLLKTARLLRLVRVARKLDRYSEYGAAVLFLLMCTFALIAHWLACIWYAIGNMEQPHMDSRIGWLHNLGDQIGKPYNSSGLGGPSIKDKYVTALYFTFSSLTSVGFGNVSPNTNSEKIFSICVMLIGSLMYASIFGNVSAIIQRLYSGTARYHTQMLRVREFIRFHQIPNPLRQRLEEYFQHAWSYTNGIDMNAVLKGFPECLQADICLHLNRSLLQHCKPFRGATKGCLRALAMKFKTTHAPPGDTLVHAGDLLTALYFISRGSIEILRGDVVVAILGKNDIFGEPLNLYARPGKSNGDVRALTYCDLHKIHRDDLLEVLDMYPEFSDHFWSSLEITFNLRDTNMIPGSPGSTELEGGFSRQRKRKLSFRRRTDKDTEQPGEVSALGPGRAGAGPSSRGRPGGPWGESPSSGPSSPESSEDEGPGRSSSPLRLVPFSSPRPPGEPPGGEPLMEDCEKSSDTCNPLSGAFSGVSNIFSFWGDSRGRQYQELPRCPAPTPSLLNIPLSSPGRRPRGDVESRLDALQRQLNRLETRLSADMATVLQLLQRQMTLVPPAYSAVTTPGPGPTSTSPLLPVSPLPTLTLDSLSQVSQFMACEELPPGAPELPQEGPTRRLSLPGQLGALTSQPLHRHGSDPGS
row,SMILES,"hERG current change (%, negative = inhibition) at 1uM"
1,COc1cccc(NC(=O)CN(C)C(=O)CSc2nc3ccccc3s2)c1,5.91%
2,Fc1cccc(Cl)c1COc1ccc(-c2nnco2)cc1,10.8%
3,CCC(C)(C(=O)NC1CCCCC1)N(Cc1cccs1)C(=O)Cc1cccs1 (stereo not shown),3.05%
4,CCn1c(SCC(=O)OC2CCCCC2)nnc1-c1ccncc1,-0.573%
5,COc1ccc(/C=c2\s/c(=C/C(=O)c3ccc(C)cc3)[nH]c2=O)c(OC)c1,13.4%
6,Cc1ccc(S(=O)(=O)Nc2ccccc2C(=O)NCc2cccnc2)cc1,9.65%
7,O=P(CN1CCN(c2ccccc2)CC1)(N1CCCCC1)N1CCCCC1,6.36%
8,O=[N+]([O-])c1cc(C(F)(F)F)c(Cl)cc1N1CCN(CCO)CC1,-0.146%
9,CCCCn1c(N)c(N(CCOC)C(=O)CCS(=O)(=O)c2ccc(Cl)cc2)c(=O)[nH]c1=O,21.1%
10,COc1ccc(NC(=O)COC(=O)Cc2c(F)cccc2Cl)cc1OC,8.82%
11,Cc1cc(C(=O)CSc2nnc(Cc3ccccc3)o2)c(C)n1Cc1ccc2c(c1)OCO2,8.36%
12,OCCN1CCN(c2ncnc3c2c(-c2ccccc2)cn3-c2ccc(Br)cc2)CC1,9.48%
13,CC(=O)N1CC2(C)CN(C(C)=O)CC(C)(C1)C2O (stereo not shown),9.01%
14,CCCCOCCCNC(=O)Cc1cccs1,13.7%
15,CCCCNC(=S)NCc1ccc2[nH]c(C)cc2c1,1.51%
16,CCOc1ccccc1N(CC)C(=O)c1nn(C)c2c1CSc1ccccc1-2,9.83%
17,CCn1c(/C=C2\C(=O)Nc3ccccc32)nc2ccccc2c1=O,14.5%
18,Cc1ccc(C)c(NC(=S)NNC(=O)c2csc3c2CCCC3)c1,-13%
19,O=C(NCCCN1CCOCC1)C1CC(=O)N(CCc2ccccc2)C1 (stereo not shown),14.3%
20,CCCCn1c(-c2cccnc2)nc2cc3[nH]c(=O)c(C(C)C)nc3cc21,0.579%
21,CN(C(=O)c1cccs1)c1ccc(OCC(=O)Nc2ccc(C(=O)O)cc2)cc1,11.8%
22,CCOC(=O)C1=CC[C@H]2c3c(c4ccccc4n3C)C[C@H]1N2C,15.5%

row,SMILES,"hERG current change (%, negative = inhibition) at 1uM"
1,COc1ccc(C2Nc3ccccc3C(=O)N2NS(=O)(=O)c2ccccc2)cc1OC (stereo not shown),8.25%
2,Nc1c(C(=O)c2ccc(Cl)cc2)sc2nc3c(cc12)CCC3,12.4%
3,O=C(Nc1cccc([N+](=O)[O-])c1)NC1CCCCCCC1,11%
4,O=C(O)C(=O)O.OCCNCCCOc1ccc(Cl)cc1Br,-3.62%
5,CCNS(=O)(=O)c1ccc(NC(=O)Nc2cc(C)ccc2OC)cc1,12.8%
6,Cc1ccc(CN(C(=O)c2csnn2)C(C(=O)NC2CCCC2)c2ccccn2)cc1 (stereo not shown),12.2%
7,COc1ccc(NC(=O)CSc2nnc(C)n2C2CC2)cc1S(=O)(=O)N1CCOCC1,11.9%
8,COC(=O)c1cccc(NC(=O)/C(=C\c2ccccc2)NC(=O)c2ccccc2Cl)c1,15.2%
9,CC(=O)Nc1ccc(OC(=O)CC2SC(=O)NC2=O)cc1 (stereo not shown),1.13%
10,O=C(CSc1n[nH]c(=O)[nH]c1=O)c1cccc([N+](=O)[O-])c1,14.7%
11,NCCCC[C@@H]1NC(=O)[C@H](CCC(=O)O)NC(=O)c2cc([N+](=O)[O-])cc(I)c2NCC[C@@H](C(N)=O)NC1=O,21.2%
12,NC(=O)Cn1cc(/C=N\NS(=O)(=O)c2ccccc2)c2ccccc21,17.5%
13,COc1ccc(CN2CCc3cc(OC)c(OC)cc3C2)cc1O,-17.7%
14,O=C(Nc1ccc(-c2nc3ccccc3[nH]2)cc1)c1ccc(N2C(=O)CCC2=O)cc1,14.4%
15,Cc1cccc(NC(=O)COc2ccc(Br)cc2C)n1,12.7%
16,O=C(N/N=C/c1ccco1)c1cccc(N2CCCC2=O)c1,11.9%
17,O=C(NCCCn1ccnc1)C(=O)NCC(c1ccco1)N1CCN(c2ccc(F)cc2)CC1 (stereo not shown),4.08%
18,Cc1ccc(C2(C)NC(=O)N(CC(=O)Nc3ccccc3N3CCCCC3)C2=O)cc1 (stereo not shown),17.1%
19,Cc1cccnc1NC(=O)C1CCN(S(=O)(=O)c2ccc3ccccc3c2)CC1,14.4%
20,CC1(C)N=C(c2cccc(F)c2)C(=O)N1,-2.57%
21,Nc1ccccc1C(=O)NNc1ncc(C(F)(F)F)cc1Cl,1.76%
22,CCOc1cccc(/C=C(/C#N)c2nc3ccccc3[nH]2)c1OCC(=O)O,13.7%

row,SMILES,"hERG current change (%, negative = inhibition) at 1uM"
1,CCOc1ccc(N(C)S(=O)(=O)c2cc(-c3cc(C)no3)ccc2OC)cc1,8.35%
2,CCOc1cc(C(=O)N/N=C/c2ccoc2)cc(OCC)c1OCC,6.54%
3,O=C(Nc1ccc2c(c1)OCO2)c1cccc2c1C(=O)N(C1CCCCC1)C2,13.4%
4,CCCC/C(C)=N/NC(=O)Nc1ccccc1,0.55%
5,O=C(c1cc([N+](=O)[O-])ccc1N1CCOCC1)N1CCCC1,5.56%
6,O=C1CCCc2nc3c(cc21)C(O)Oc1c-3ccc2ccccc12 (stereo not shown),2.73%
7,COc1ccc(S(=O)(=O)NN=C2CCCCC2)cc1,4.69%
8,O=C(NCc1ccccn1)/C(=N/O)c1ccccc1,9.34%
9,COc1cc(C)nc(N2CCC(C(N)=O)CC2)n1,4.53%
10,CCCCCOc1ccc(C(O)C(CN2CCOCC2)c2ccccc2)cc1.Cl (stereo not shown),13.4%
11,COc1cc(/C=N\NC(=O)CNC(=O)C2COc3ccccc3O2)ccc1O (stereo not shown),-5.65%
12,O=C1C2C(C(=O)N1c1nccs1)C1C=CC2C12CC2 (stereo not shown),7.5%
13,O=C(NC(=S)Nc1ccc(O)cc1)c1ccccc1Cl,7%
14,Cc1ccc(NC(=O)NC(=O)CSc2nnc(-c3ccc(Cl)cc3Cl)n2N)c(C)c1,10.5%
15,O=C(Nc1ccc2c(c1)CCC2)c1cccc(OC(F)F)c1,-3.68%
16,COc1cc(N2CCOCC2)ccc1/C=C1\C(=O)NC(=O)N(Cc2cccs2)C1=O,9.85%
17,Cc1ccc(C)c(S(=O)(=O)Nc2ccc3scnc3c2)c1,16.5%
18,COc1ccc(S(=O)(=O)N(CC(=O)O)c2ccccc2)cc1,11.9%
19,COc1ccc(N(C)C(=O)c2sc(Cl)nc2C)cc1,9.2%
20,COc1cc2c(cc1OC)CN(CC(=O)Nc1ccc(C)c(S(=O)(=O)N3CCOCC3)c1)CC2,13.1%
21,COc1ccc(C2C(C#N)=C(/N=C/N3CCN(C)CC3)OC3=C2C(=O)CC(C)(C)C3)cc1OC (stereo not shown),13.3%
22,NC(=O)CC1C(=O)N(c2ccccc2)C(=S)N1NC(=O)c1ccccc1 (stereo not shown),17.9%

row,SMILES,"hERG current change (%, negative = inhibition) at 1uM"
1,O=C(c1cccs1)N1CCN=C1SCc1ccccc1,8.31%
2,Cc1ccc(S(=O)(=O)N2CCCCC2)cc1NC(=S)NC(=O)c1ccco1,8.5%
3,C/C(=N\Nc1ccc(Cl)cc1)c1ccccn1.Cl,-0.472%
4,CCCCNC(=O)N(O)C1N(/N=C/c2ccccc2F)C(=S)SC1(C)C (stereo not shown),16.1%
5,CCN(CC)C(=S)Nc1ccc(OC(F)F)cc1,-9.5%
6,COc1ccc(CNc2nnnn2C)c(OC)c1,9.64%
7,O=C(CNC(=O)c1ccccc1)OCC(=O)c1ccccc1Cl,13.7%
8,COCCCNC(NC(=O)c1ccc(Cl)cc1)C(Cl)(Cl)Cl (stereo not shown),1.56%
9,CCN1CCC2(CC1)NC(CO)(CO)CO2,14.3%
10,C1CCN(CCCNC2C3CC4CC(C3)CC2C4)C1.Cl (stereo not shown),7.44%
11,COC(=O)c1sccc1NC(=O)CC1C(=O)NCCN1C(=O)c1ccccc1 (stereo not shown),6.1%
12,Cc1ccc2c(Cl)cc(Cl)c(OCC(=O)N(C(C)C)C(C)C)c2n1,2.29%
13,O=C1c2ccc(Cl)cc2S(=O)(=O)c2cccc(C(=O)N3CCN(c4ccc(Cl)cn4)CC3)c21,1.52%
14,C/C(=C\C(=O)c1ccccc1)Nc1ccc(Cl)c(Br)c1,12.3%
15,COc1ccccc1CCNC(=O)CCCn1nc(C)c2c(C)n(-c3ccc(C)cc3)nc2c1=O,13.3%
16,Cc1c(CC(=O)O)c(=O)oc2c(C)c3occ(-c4ccc(F)cc4)c3cc12,8.9%
17,Cc1csc(NC(=O)/C=C/c2ccc3c(c2)OCO3)n1,8.44%
18,O=C(CCCN=C1NS(=O)(=O)c2ccccc21)OCC(=O)c1ccccc1,11.7%
19,Cc1ccc2nc(N3C(=O)C(O)=C(C(=O)c4ccco4)C3c3cccc(O)c3)sc2c1.O=C(O)C(=O)O (stereo not shown),11.2%
20,CCc1ccccc1NC(=O)C1CCCN(c2ncccn2)C1 (stereo not shown),11.2%
21,CCOC(=O)C1C(c2ccc(C)o2)NC(=O)NC1(O)C(F)(F)F (stereo not shown),10.6%
22,Cc1ccc(CCNC(=O)CS(=O)Cc2nc(-c3cccs3)oc2C)cc1 (stereo not shown),2.73%
